In the supplement of paper PMC9334596:
Several values for one entry are separate records, joined by “and”; a condition that tells them apart may be missing. Identical values can stand only once. In all, about 5,300 compounds were measured (“PER2::LUC luminescence relative to vehicle control”: median about 0.96, highest 2% from about 1.3 on). The list shows a part of the results.

Tested on: mPer2Luc MEF
Assay: PER2::LUC luminescence relative to vehicle control (fold of vehicle); higher = higher PER2::LUC reporter signal
Details: 10 µM
How it was run: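 The value is PER2::LUC luminescence expressed as fold of vehicle control. Mouse embryonic fibroblasts carrying the mPer2Luc reporter were seeded at ~3000 cells per well in 384-well plates and grown in DMEM with 10% FBS at 37 °C and 5% CO2. Compounds from commercial libraries were added at 10 μM 48 h after seeding, and luminescence was read with the ONE-Glo luciferase assay system 24 h and 30 h after treatment, followed by an alamarBlue viability assay.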

Row | SMILES | PER2::LUC luminescence (time after treatment 24 h) | PER2::LUC luminescence (time after treatment 30 h)
1 | CC(C)[C@H]1C(=O)O[C@@H]2CCN3CC=C(COC(=O)[C@](C)(O)[C@]1(C)O)[C@H]23 | 1.02 | 0.979
2 | CC(C)[C@H]1C(=O)N2CCC[C@H]2[C@]2(O)O[C@](NC(=O)[C@@H]3C=C4c5cccc6[nH]cc(c56)C[C@H]4N(C)C3)(C(C)C)C(=O)N12 | 0.903 | 0.866
3 | N#CC(C#N)=Cc1ccc(O)c(O)c1 | 0.965 | 0.898
4 | CCCC[N+]1(C)[C@@H]2C[C@@H](OC(=O)[C@H](CO)c3ccccc3)C[C@H]1[C@@H]1O[C@@H]12 (stereo partly drawn) | 0.972 | 0.991
5 | S=C=NCc1ccccc1 | 1.04 | 0.984
6 | C[C@H]1CC[C@]2(NC1)O[C@H]1C[C@H]3[C@@H]4CC[C@H]5C[C@@H](O)CC[C@]5(C)[C@H]4CC[C@]3(C)[C@H]1[C@@H]2C | 1.02 | 0.919
7 | CC(C)C(Br)C(=O)NC(N)=O (stereo not drawn) | 0.738 | 0.936
8 | COP(=O)(OC)OC=C(Cl)Cl | 0.909 | 0.868
9 | NC(CCCCCP(=O)(O)O)C(=O)O (racemic) | 1.22 | 1.09
10 | COP(=O)(OC)C(O)C(Cl)(Cl)Cl (stereo not drawn) | 1.03 and 0.856 | 0.878 and 0.86
11 | CNC1CC(N)C(O)C(OC2OC(CO)C(O)C3OC4(OC(C(N)CO)C(O)C(O)C4O)OC23)C1O (stereo not drawn) | 0.804 | 0.862
12 | C=CCc1ccc2c(c1)OCO2 | 0.957 | 1.03
13 | c1ccc(Cn2ccnc2)cc1 | 1.03 | 1.25
14 | N=C(N)NCCCCCCCCCCNC(=N)N | 0.972 | 0.965
15 | C=CCN1CC[C@]23c4c5ccc(O)c4O[C@H]2C(=O)CC[C@@]3(O)[C@H]1C5 | 0.937 and 0.849 | 1.01 and 0.88
16 | CCCOC(=O)c1cc2c(cn1)[nH]c1ccccc12 | 1.03 | 0.941
17 | Cc1ccc2cc3c(ccc4ccccc43)c3c2c1CC3 | 1.18 | 1.11
18 | C[C@@H]1C(=O)O[C@H]2[C@H]1CC[C@@]1(C)C=CC(=O)[C@@]3(C)O[C@@]213 | 0.923 | 0.994
19 | O=c1n(Cl)c(=O)n(Cl)c(=O)n1Cl | 1.05 and 1.07 | 0.958 and 1.09
20 | C[C@@H]1O[C@H](C[N+](C)(C)C)C[C@H]1O (racemic) | 0.84 | 0.916
21 | C[C@@H]1O[C@H](C[N+](C)(C)C)C[C@H]1O | 0.96 | 1.01
22 | CP(=O)(O)C1=CCNCC1 | 0.941 | 0.959
23 | Cn1cc(C(=O)C(=O)NC2CN3CCC2CC3)c2ccccc21 (stereo not drawn) | 0.832 | 0.8
24 | Cn1cc(C2=C(c3cn(C4CCN(Cc5ccccn5)CC4)c4ccccc34)C(=O)NC2=O)c2ccccc21 | 1.15 | 1.1
25 | NC(=O)c1cc(N2CC2)c([N+](=O)[O-])cc1[N+](=O)[O-] | 0.962 | 1.23
26 | CN1Cc2c(ccc3c2OCO3)[C@@H]2[C@H]1c1cc3c(cc1C[C@@H]2O)OCO3 | 0.446 | 0.425
27 | CCCCCCCCCCCCCC(=O)O[C@@H]1[C@@H](C)[C@@]2(O)[C@@H](C=C(CO)C[C@@]3(O)C(=O)C(C)=C[C@@H]23)[C@@H]2C(C)(C)[C@]12OC(C)=O | 1.12 | 1.08

Row | SMILES | PER2::LUC luminescence (time after treatment 24 h) | PER2::LUC luminescence (time after treatment 30 h)
28 | CC1(C)C(C(=O)Nc2ccc(S(=O)(=O)c3ccc(NC(=O)C4C(C)(C)C4(C)C)cc3)cc2)C1(C)C | 0.852 | 1.02
29 | COc1c2c(cc3c1OCO3)CCN(C)C2 | 1.07 | 1.05
30 | O=C(NCC1CCOCC1)c1cnc(Nc2ccc(Cl)cc2Cl)nc1C(F)(F)F | 1.03 | 1.03
31 | CN1CCc2cccc(Cl)c2CC1 | 0.982 | 0.838
32 | COC(=O)[C@@H](N)CCCNC(=N)N[N+](=O)[O-] | 0.881 | 0.976
33 | COc1cc(=O)oc(/C=C/C=C/C=C/C(C)=C/[C@@]2(C)O[C@H](C)[C@](C)(O)[C@H]2O)c1C | 0.952 | 0.913
34 | CN[C@@H](C)[C@H](O)c1ccccc1 | 1.2 | 0.938
35 | CC[C@]1(O)CC[C@H]2[C@@H]3CCC4=CCCC[C@@H]4[C@H]3CC[C@@]21C | 1.02 | 1.05
36 | CO[C@H]1[C@@H](O)[C@@H](C)O[C@H](O[C@H]2[C@H](Oc3cccc4c(O)c5c(=O)oc6ccc(C)c7c(=O)oc(c34)c5c67)O[C@H](C)[C@H](O)[C@@H]2O)[C@@H]1O | 1.11 | 1.04
37 | CC(=O)O[C@H]1C[C@@H]2CC[C@@H]3[C@H](CC[C@@]4(C)[C@H]3C[C@H]([N+]3(C)CCCCC3)[C@@H]4OC(C)=O)[C@@]2(C)C[C@@H]1[N+]1(C)CCCCC1 | 0.857 and 1.06 and 0.934 | 1.25 and 0.954 and 0.971
38 | C[C@]12CC[C@H](O)C[C@H]1CC[C@@H]1[C@@H]2CC[C@]2(C)[C@@H](C3=CC(=O)OC3)[C@@H](O)C[C@]12O | 1.08 | 1.1
39 | C[C@]12CCC(=O)C[C@@H]1CC[C@@H]1[C@@H]2CC[C@]2(C)C(=O)CC[C@@H]12 | 0.841 | 0.755
40 | COc1cccc(NCC(F)Cn2c3ccc(Br)cc3c3cc(Br)ccc32)c1 (stereo not drawn) | 1.02 | 1.08
41 | c1ccc2c(c1)Nc1ccccc1S2 | 0.897 | 1.1
42 | C[C@]12CC[C@H]3[C@@H](CCC4=CC(=O)CC[C@@]43C)[C@@H]1CC[C@@H]2O | 0.653 | 0.733
43 | N=C(NCCC[C@H](N)C(=O)O)N[N+](=O)[O-] | 1.04 | 1.1
44 | Cc1ccc(/N=C/N(C)/C=N/c2ccc(C)cc2C)c(C)c1 | 1.19 | 0.869
45 | CCCN(CCC)C1Cc2cc(OC)c(OC)cc2C1 | 1.04 | 0.998
46 | O=c1c2ccccc2[se]n1-c1ccccc1 | 1.1 | 0.901
47 | CC(C)NC(C)Cc1ccc(I)cc1 (stereo not drawn) | 1.06 | 0.868
48 | O=C(O)C(=O)c1cn(Cc2ccccc2)c2ccc(-c3ccc(OC(F)(F)F)cc3)cc12 | 0.98 | 0.882
49 | O=c1ccc2cc(O[C@@H]3O[C@H](CO)[C@@H](O)[C@H](O)[C@H]3O)c(O)cc2o1 | 0.908 | 0.906
50 | COc1cc2c3cc1Oc1c(OC)c(OC)cc4c1[C@@H](Cc1cccc(c1)Oc1ccc(c(O)c1)C[C@@H]3N(C)CC2)N(C)CC4 | 0.505 | 0.563
51 | CN1CCCCC1Cn1cc(C(=O)c2cc([N+](=O)[O-])ccc2I)c2ccccc21 (stereo not drawn) | 0.814 | 0.666
52 | O=C1c2ccccc2-c2cccc3cccc1c23 | 0.822 | 0.749
53 | NCC(O)c1ccc(O)cc1 (stereo not drawn) | 0.964 | 0.943
54 | COC(=O)N1CCN(C(=O)Cc2ccc(Cl)c(Cl)c2)C(CN2CCCC2)C1 (stereo not drawn) | 0.947 and 0.914 | 0.942 and 0.885
